# Measurements: the supplement of paper PMC8728848
# The other results are listed elsewhere or left out.
# Key:
# Assay in all cases: glycan array binding signal (z-score within array); higher = stronger binding
# Conditions in all cases: glycan notation: IUPAC condensed, linker removed
# [1] = molecular target: Fuc(a1-3)GlcNAc
# Procedure, shortened: (§1)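 Arrays were curated from the Consortium for Functional Glycomics database, 3228 in total, and kept only where the protein sequence was available. Binding is expressed as a within-array Z-score. This score was averaged across arrays of the same protein sequence at different concentrations or buffers and across linkers, and negative values can be read as non-binding.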
# [2] = molecular target: Fuc(a1-3)[Gal(b1-4)]Glc6S
# Procedure, shortened: as §1
# [3] = molecular target: Fuc(a1-3)[Gal(b1-4)]GlcNAc
# Procedure, shortened: as §1
# [4] = molecular target: Fuc(a1-3)[Gal(b1-4)]GlcNAc(b1-2)Man
# Procedure, shortened: as §1
# [5] = molecular target: Fuc(a1-3)[Gal(b1-4)]GlcNAc(b1-2)Man(a1-3)[Fuc(a1-3)[Gal(b1-4)]GlcNAc(b1-2)Man(a1-6)]Man(b1-4)GlcNAc(b1-4)GlcNAc
# Procedure, shortened: as §1
# [6] = molecular target: Fuc(a1-3)[Gal(b1-4)]GlcNAc(b1-2)Man(a1-3)[Fuc(a1-3)[Gal(b1-4)]GlcNAc(b1-2)Man(a1-6)]Man(b1-4)GlcNAc(b1-4)[Fuc(a1-6)]GlcNAc
# Procedure, shortened: as §1
# [7] = molecular target: Fuc(a1-3)[Gal(b1-4)]GlcNAc(b1-3)Gal(b1-3)[Fuc(a1-4)]GlcNAc
# Procedure, shortened: as §1
# [8] = molecular target: Fuc(a1-3)[Gal(b1-4)]GlcNAc(b1-3)Gal(b1-4)[Fuc(a1-3)]GlcNAc
# Procedure, shortened: as §1
# [9] = molecular target: Fuc(a1-3)[Gal(b1-4)]GlcNAc(b1-3)Gal(b1-4)[Fuc(a1-3)]GlcNAc(b1-3)Gal(b1-4)[Fuc(a1-3)]GlcNAc
# Procedure, shortened: as §1
# [10] = molecular target: Fuc(a1-3)[Gal(b1-4)]GlcNAc(b1-3)GalNAc
# Procedure, shortened: as §1
# [11] = molecular target: Fuc(a1-3)[Gal(b1-4)]GlcNAc(b1-6)GalNAc
# Procedure, shortened: as §1
# [12] = molecular target: Fuc(a1-3)[Gal(b1-4)]GlcNAc(b1-6)[Gal(b1-3)GlcNAc(b1-3)]Gal(b1-4)Glc
# Procedure, shortened: as §1
# [13] = molecular target: Fuc(a1-3)[Gal(b1-4)]GlcNAc6S
# Procedure, shortened: as §1
# [14] = molecular target: Fuc(a1-3)[Gal3S(b1-4)]Glc
# Procedure, shortened: as §1
# [15] = molecular target: Fuc(a1-3)[Gal3S(b1-4)]GlcNAc
# Procedure, shortened: as §1
# [16] = molecular target: Fuc(a1-3)[Gal3S(b1-4)]GlcNAc6S
# Procedure, shortened: as §1
# [17] = molecular target: Fuc(a1-3)[GalNAc(b1-4)]GlcNAc
# Procedure, shortened: as §1
# [18] = molecular target: Fuc(a1-3)[GalNAc(b1-4)]GlcNAc6S
# Procedure, shortened: as §1
# [19] = molecular target: Fuc(a1-4)GlcNAc
# Procedure, shortened: as §1
# [20] = molecular target: Fuc(b1-3)GlcNAc
# Procedure, shortened: as §1
# [21] = molecular target: Gal(a1-2)Gal
# Procedure, shortened: as §1
# [22] = molecular target: Gal(a1-3)Gal
# Procedure, shortened: as §1
# [23] = molecular target: Gal(a1-3)Gal(b1-3)GlcNAc
# Procedure, shortened: as §1
# [24] = molecular target: Gal(a1-3)Gal(b1-3)GlcNAc(b1-2)Man
# Procedure, shortened: as §1
# [25] = molecular target: Gal(a1-3)Gal(b1-3)GlcNAc(b1-2)Man(a1-3)[Gal(a1-3)Gal(b1-3)GlcNAc(b1-2)Man(a1-6)]Man(b1-4)GlcNAc(b1-4)GlcNAc
# Procedure, shortened: as §1
# [26] = molecular target: Gal(a1-3)Gal(b1-3)GlcNAc(b1-3)GalNAc
# Procedure, shortened: as §1
# [27] = molecular target: Gal(a1-3)Gal(b1-3)GlcNAc(b1-6)GalNAc
# Procedure, shortened: as §1
# [28] = molecular target: Gal(a1-3)Gal(b1-3)[Fuc(a1-4)]GlcNAc(b1-2)Man(a1-3)[Gal(a1-3)Gal(b1-3)[Fuc(a1-4)]GlcNAc(b1-2)Man(a1-6)]Man(b1-4)GlcNAc(b1-4)GlcNAc
# Procedure, shortened: as §1
# [29] = molecular target: Gal(a1-3)Gal(b1-4)Glc
# Procedure, shortened: as §1
# [30] = molecular target: Gal(a1-3)Gal(b1-4)GlcNAc
# Procedure, shortened: as §1
# [31] = molecular target: Gal(a1-3)Gal(b1-4)GlcNAc(b1-2)Man
# Procedure, shortened: as §1
# [32] = molecular target: Gal(a1-3)Gal(b1-4)GlcNAc(b1-2)Man(a1-3)[Gal(a1-3)Gal(b1-4)GlcNAc(b1-2)Man(a1-6)]Man(b1-4)GlcNAc(b1-4)GlcNAc
# Procedure, shortened: as §1
# [33] = molecular target: Gal(a1-3)Gal(b1-4)GlcNAc(b1-3)GalNAc
# Procedure, shortened: as §1
# [34] = molecular target: Gal(a1-3)Gal(b1-4)GlcNAc(b1-6)GalNAc
# Procedure, shortened: as §1
# [35] = molecular target: Gal(a1-3)Gal(b1-4)[Fuc(a1-3)]GlcNAc
# Procedure, shortened: as §1
# [36] = molecular target: Gal(a1-3)Gal(b1-4)[Fuc(a1-3)]GlcNAc(b1-2)Man(a1-3)[Gal(a1-3)Gal(b1-4)[Fuc(a1-3)]GlcNAc(b1-2)Man(a1-6)]Man(b1-4)GlcNAc(b1-4)GlcNAc
# Procedure, shortened: as §1
# [37] = molecular target: Gal(a1-3)GalNAc
# Procedure, shortened: as §1
binder,measurement,setting,value
Si Bti9 1b-V5-his (Solanum lycopersicum) (protein) MQCNRGCDLALASFYVWRGSNLTLISEMFSTSIADIVSYNNRDNIPNQDSVIAGTRINIPFRCDCLNDGEVLGHAFPYRVKSGDTYDLVARNYSDLTTAQWMMKFNSYPENNIPNTVNLSVVVNCSCGNSDVSKDFGLFVTYPVRAEDNLTSVASAANVSEDIIRRYNPAAVSILDIGQGIIYIPGRDRNGNFPPLPTSTDGLSGGAKKGGRADPAFLYKVVINSKLEGKPIPNPLLGLDSTRTGHHHHHH,glycan array binding signal (z-score),[1],-0.37
same,glycan array binding signal (z-score),[2],-0.288
same,glycan array binding signal (z-score),[3],-0.217
same,glycan array binding signal (z-score),[4],-0.338
same,glycan array binding signal (z-score),[5],0.018
same,glycan array binding signal (z-score),[6],-0.23
same,glycan array binding signal (z-score),[7],-0.136
same,glycan array binding signal (z-score),[8],0.039
same,glycan array binding signal (z-score),[9],-0.313
same,glycan array binding signal (z-score),[10],-0.187
same,glycan array binding signal (z-score),[11],-0.03
same,glycan array binding signal (z-score),[12],-0.389
same,glycan array binding signal (z-score),[13],-0.273
same,glycan array binding signal (z-score),[14],-0.261
same,glycan array binding signal (z-score),[15],-0.308
same,glycan array binding signal (z-score),[16],-0.214
same,glycan array binding signal (z-score),[17],-0.214
same,glycan array binding signal (z-score),[18],-0.131
same,glycan array binding signal (z-score),[19],-0.202
same,glycan array binding signal (z-score),[20],-0.203
same,glycan array binding signal (z-score),[21],0.074
same,glycan array binding signal (z-score),[22],-0.128
same,glycan array binding signal (z-score),[23],11.5
same,glycan array binding signal (z-score),[24],6.21
same,glycan array binding signal (z-score),[25],0.09
same,glycan array binding signal (z-score),[26],-0.243
same,glycan array binding signal (z-score),[27],-0.312
same,glycan array binding signal (z-score),[28],0.176
same,glycan array binding signal (z-score),[29],-0.169
same,glycan array binding signal (z-score),[30],-0.22
same,glycan array binding signal (z-score),[31],-0.206
same,glycan array binding signal (z-score),[32],-0.023
same,glycan array binding signal (z-score),[33],-0.164
same,glycan array binding signal (z-score),[34],-0.005
same,glycan array binding signal (z-score),[35],-0.242
same,glycan array binding signal (z-score),[36],0.331
same,glycan array binding signal (z-score),[37],-0.264
